Assay results reported in PubChem BioAssay AID504832 (National Center for Advancing Translational Sciences (NCATS), 2011).
Screen size: about 310,000 compounds; about 18,000 (5.8%) were called active. Inconclusive means that the source gave no clear call. Such entries were picked first, then a sample of the others. Calls come from the whole dose curve; as a rule, active = well fitted inhibition curve with a large enough effect; inconclusive = small, poorly fitted or top-dose-only effect, or another doubt; inactive = no such curve, though single readings can be large or run the other way. Potencies of inconclusive entries are left out as doubtful fits.

assay: Primary qHTS for delayed death inhibitors of the malarial parasite plastid, 48 hour incubation; settings: P. falciparum luciferase growth in erythrocytes; series mostly up to 28.7 µM
How it was run: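 Luciferase-expressing P. falciparum in infected erythrocytes (2% hematocrit, 0.1% parasitemia final) in RPMI 1640/0.5% Albumax were exposed to compound for 48 hours at 37 C, 5% CO2; growth read as luminescence.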
Potency is the fitted concentration of half-maximal effect; tags give direction and shape of the fitted curve.

SMILES | Potency
Cc1cc(C(=O)CSc2ccc3c(c2)OCCO3)c(C)n1C1CC1 | inactive
Cc1cccc(CSc2nc3c(cc2C#N)CN(C)CC3)c1 | active: 10.4 µM
COc1ccc(/C=C/C(=O)N2CCCc3ccccc32)c(OC)c1 | inconclusive [inhibitor, single point]
Cc1cc(C)cc(N(CCC#N)C(=O)COC(=O)C2CCN(c3ccc(C(F)(F)F)cn3)CC2)c1 | inconclusive [inhibitor, single point]
Cn1cc(C(=O)N/N=C/C(Br)=C/c2ccccc2)ccc1=O | inconclusive [inhibitor, single point]
CS(=O)(=O)N(CC(=O)Nc1ccccc1F)C1CCCCC1 | inactive
O=C(CCN1C(=O)S/C(=C\c2cccs2)C1=O)Nc1nccs1 | inactive
CCOc1ccc(N2C(=O)CC(N3CCN(c4ccc(F)cc4)CC3)C2=O)cc1 (stereo unspecified) | inactive
CCOc1ccc(NC(=S)N2CCN(c3ccc(N4CCOCC4)nn3)CC2)cc1 | inconclusive [inhibitor, full curve, poor fit]
O=C(Cc1ccc(S(=O)(=O)N2CCOCC2)s1)Nc1ccc2c(c1)CCC2 | inconclusive [inhibitor, single point]
C=CCn1c(SCC2=C(C(=O)OCC)C(C)NC(=O)N2)nnc1C1CCCCC1 (stereo unspecified) | active: 11.7 µM
Cc1cc(=O)n2c3ccccc3n(CC(O)CN3CCN(CCO)CC3)c2c1C#N (stereo unspecified) | inconclusive [inhibitor, single point]
COc1ccc(N(CC(=O)NCCC2=CCCCC2)S(=O)(=O)c2ccccc2F)cc1 | inconclusive [inhibitor, single point]
FC(F)(F)c1ccc2c3n(nc2c1)CCN=C3c1ccc(Cl)cc1 | inconclusive [inhibitor, single point]
COc1cc(SC)ccc1C(=O)N1CCc2ccccc21 | inconclusive [inhibitor, partial curve, poor fit]
CN(C(=O)COc1ccccc1)c1nnc(-c2cccnc2)s1 | inactive
Cc1ccc(-c2cc3nc(-c4ccccc4)cc(N4CCOCC4)n3n2)cc1 | inconclusive [inhibitor, partial curve]
COc1ccc(CNC(=O)CN(C(=O)c2csnn2)c2cccc(C(C)=O)c2)cc1 | inactive
CC(C)(C)NC(=O)c1ccc2nsnc2c1 | inactive
Cc1nn(-c2ccccc2)c(C)c1/C=N/N1CCN(c2ccccc2)CC1 | inactive
O=C1CN(C(=O)/C=C/c2cccc(Cl)c2)c2ccccc2N1 | inconclusive [inhibitor, single point]
Cc1ccc(C(=O)c2oc3ccc(Cl)cc3c2NC(=O)CN2CCN(C)CC2)cc1 | inconclusive [inhibitor, single point]
Cc1ccccc1CNC(=O)CN(c1cccc([N+](=O)[O-])c1)S(C)(=O)=O | inactive
OC1(c2cccs2)CN(c2ccc(Br)cc2)C2=[N+]1CCCS2 (stereo unspecified) | inconclusive [inhibitor, single point]
COc1cccc(CN(C)C(=O)C(CCSC)NS(=O)(=O)c2ccc3c(c2)OCCO3)c1OC (stereo unspecified) | active: 11.7 µM
Cc1ccc(OCc2nnc(SCc3nc4ccccc4[nH]3)n2Cc2ccco2)cc1 | inconclusive [inhibitor, partial curve, poor fit]

SMILES | Potency
COC(=O)CSc1nnc(NC(=O)c2ccc3c(c2)OCO3)s1 | inactive
COc1cccc(COCC(O)Cn2cnc3cc(C)c(C)cc32)c1 (stereo unspecified) | inactive
CCOC(=O)C1CCN(C(=O)CSc2cc(=O)n(C)c3ccccc23)CC1 | inconclusive [inhibitor, partial curve, poor fit]
CN(c1nc2ccccc2n2c(C3CC3)nnc12)S(=O)(=O)c1ccccc1 | inactive
C/C(=C\C(=O)c1ccc(Br)cc1)Nc1ccc(Cl)cc1 | inactive
OC(C#CCN1CCCC1)c1ccccc1 (stereo unspecified) | inactive
Cc1c(C(=O)NCc2ccccn2)oc2ccc(S(=O)(=O)N3CCC4(CC3)OCCO4)cc12 | active: 13.1 µM
COc1cccc(CC(=O)OCC(=O)c2cc(OC)ccc2OC)c1 | inactive
Oc1[nH]c2c(Cl)cc(Cl)cc2c1N=NC(=S)NCC1CCCO1 (stereo unspecified) | active: 1.85 µM
Cc1ccc(CN2[C@@H](Cc3ccccc3)C(=O)CS2(=O)=O)cc1 | inconclusive [inhibitor, partial curve, poor fit]
CCC(=O)N1CCc2cc(-c3csc(NC(=O)c4ccco4)n3)ccc21 | inconclusive [inhibitor, single point]
Cc1ccc(-n2nc3c(=O)n(CC(=O)NCCc4ccccc4C)nc(C)c3c2C)cc1 | inconclusive [inhibitor, single point]
Cc1ccc(-c2nn(-c3ccccc3)cc2/C=C/C(=O)OCC(=O)NC2CC2)o1 | inconclusive [inhibitor, single point]
O=C(NNC(=O)c1ccc(F)c(S(=O)(=O)N2CCOCC2)c1)c1ccc([N+](=O)[O-])cc1 | inactive
COc1ccc(NS(=O)(=O)c2cccc(C(=O)OCC(=O)N3CCN(c4ccc(OC)cc4)CC3)c2)cc1 | inconclusive [inhibitor, single point]
CC1Cc2nc(SCC(=O)Nc3ccccc3F)n(C)c(=O)c2S1 (stereo unspecified) | active: 7.38 µM
O=C1OC(N2C(=O)CC[C@H]2C(=O)Nc2cccc(F)c2)c2ccccc21 (stereo partly specified) | inactive
CC(=O)c1ccc(OCC(O)CNCc2ccc3c(c2)OCO3)cc1 (stereo unspecified) | active: 2.62 µM
CN(C)C1=NC[C@H](Cc2ccccc2)N1CCCC1CCCCC1 | active: 7.38 µM
NC(=O)c1ccc(-c2noc(-c3ccccc3F)n2)cc1 | inactive
O=C(Nc1ccc(O)c(-c2nc3ccccc3s2)c1)c1cccs1 | inactive
CCCSc1nc(O)c(C(c2ccc(OC)c(O)c2)c2c(O)nc(SCCC)n(C)c2=O)c(=O)n1C | inactive
O=c1[nH]c(SCc2ccc(F)cc2Cl)nc2ccccc12 | inactive
Cc1ccc(C)c(N(C)S(=O)(=O)c2ccc3c(c2)oc(=O)n3C)c1 | inconclusive [inhibitor, single point]
CC(C)Cc1nnc(NC(=O)CN2C(=O)NC3(CCCCC3)C2=O)s1 | inconclusive [inhibitor, single point]
CC1CCCC(NC(=O)c2ccc(CNc3c(N4CCCC4)c(=O)c3=O)cc2)C1C (stereo unspecified) | inconclusive [inhibitor, partial curve, poor fit]

SMILES | Potency
Cc1nn(-c2ccccc2)c(Cl)c1C(=O)NNC(=O)c1ccccc1O | inconclusive [inhibitor, single point]
Clc1ccc(Oc2nc(Oc3ccc(Cl)cc3)nc(N3CCOCC3)n2)cc1 | inconclusive [inhibitor, single point]
COc1ccc(C(=O)Nc2cc3c(cc2C(=O)O)OCCCO3)c(OC)c1 | inactive
Cc1cnc(NC(=O)CN2CCN(c3ccccn3)CC2)s1 | inactive
Cc1cc(C)n(CC(=O)NC2C(=O)N3C(C(=O)O)=C(CSc4nnc(C)s4)CSC23)n1 (stereo unspecified) | inactive
COC(=O)C1=C(NC(=O)c2cccc(OC)c2)CCS1 | inactive
Cc1ccc(C(=O)NCC(=O)OCC(=O)Nc2cc(C)c(C)cc2[N+](=O)[O-])cc1 | inactive
CC(C)C[C@H](NC(=O)OC(C)(C)C)c1nnc(SCc2cccc(F)c2)o1 | inconclusive [inhibitor, single point]
COc1cc(OC)cc(C(=O)Nc2ccccc2-c2nnn(CC(N)=O)n2)c1 | inconclusive [inhibitor, single point]
CCC(C(=O)NC1CCCC1)N(C(=O)Cn1nnc(-c2ccc(C)o2)n1)c1ccc(F)cc1 (stereo unspecified) | inactive
O=C(NC1CCCC1)C1CCN(C(=O)c2ccccc2Cl)CC1 | inactive
CC(NC(=O)COC(=O)/C=C/c1cccc(C(F)(F)F)c1)c1ccccc1 (stereo unspecified) | inactive
CC1CN(C(=O)c2ccn(C)n2)CC(C)O1 (stereo unspecified) | inactive
Cc1ccc(C(=O)OCC(=O)Nc2ccc(F)c(Cl)c2)o1 | inactive
O=c1cc2c(=O)oc3cc(O)c(O)oc3c2c(O)c1O | active: 5.22 µM
NC(=O)c1ccc(NC(=O)Cc2ccc(S(=O)(=O)N3CCCCC3)cc2)cc1 | inconclusive [inhibitor, partial curve]
CC1CN(S(=O)(=O)c2ccccc2)CC(C)O1 (stereo unspecified) | inactive
COc1ccc(-n2nc(C(=O)NCC(=O)NCC3COc4ccccc4O3)c3ccccc3c2=O)cc1OC (stereo unspecified) | inconclusive [inhibitor, single point]
Cc1ccc(CNC(=O)[C@H](C)NC(=O)C2CCN(C(=O)[C@@H]3CCCN3C(=O)OC(C)(C)C)CC2)cc1 | inconclusive [inhibitor, single point]
CS(=O)(=O)c1ccccc1C(=O)N(CCc1ccccc1)Cc1ccccc1 | inconclusive [inhibitor, full curve, poor fit]
COc1ccc(CN(C)C(=O)COC(=O)c2ccc(-c3ccccc3)cc2)c(OC)c1OC | inconclusive [inhibitor, single point]
COc1ccc(/C=C(\NC(=O)c2ccc(OCC(C)C)cc2)C(=O)OCc2ccco2)cc1 | inconclusive [inhibitor, single point]
CCOC(=O)C1CCCN(C2CC(=O)N(c3ccc(NC(C)=O)cc3)C2=O)C1 (stereo unspecified) | inactive
Cc1ccc(C(=O)N2CCN(c3ncccn3)CC2)cc1S(=O)(=O)N1CCCCC1 | inactive
